According to PubChem BioAssay AID743279 (National Center for Advancing Translational Sciences (NCATS), 2014):
Among all 360,000 compounds or so, about 17,000 (4.7%) were called active. The shares of active, inactive and inconclusive entries below differ from those in the screen. No stated cut-off is given here; in the data, active means activity change below about -50%; inconclusive means mostly about -30% to -49%; inactive means weaker than that.

assay: qHTS for Inhibitors of Inflammasome Signaling: IL-1-beta AlphaLISA Primary Screen; details: THP-1 LPS/ATP IL-1B secretion, 16 h; at 57.5 µM, active compounds read low
Outline: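 THP-1 cells pretreated 1 hr with compounds (up to 57.5 uM final), then stimulated with LPS (250 ng/mL final) plus ATP (1.25 mM final); secreted IL-1B measured by AlphaLISA after 16 hr, decreased signal indicating inhibition.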
On the % scale 0 is the no-effect control and ±100 the full control effect.

Q: Which activity change does the source give for Cc1noc(C)c1S(=O)(=O)N(C)C[C@H]1Oc2ccc(NS(=O)(=O)c3ccc(F)cc3)cc2C(=O)N([C@H](C)CO)C[C@@H]1C here?
A: inconclusive: -44.5%

Q: With O=C(c1ccc2c(c1)OCO2)C1CCCN(Cc2cccn2-c2cccnc2)C1 (stereo unspecified) as the compound, how does the activity change read?
A: inconclusive: -33%

Q: For Cc1c(CN(C)C(=O)c2sc3cc(Cl)ccc3c2Cl)cnn1C, which activity change is on record?
A: inconclusive: -44.3%

Q: Which activity change does the source give for CCN(CC)S(=O)(=O)c1ccc(C)c(NC(=S)Nc2cccc(S(=O)(=O)N3CCCCCC3)c2)c1 here?
A: inconclusive: -32.6%

Q: For COCCN(C(=O)C1CCCO1)c1c(N)n(CC(C)C)c(=O)[nH]c1=O (stereo unspecified), which activity change is on record?
A: inactive: 0.993%

Q: For CCOC(=O)C(C)Sc1nc(=O)n2ccccc2n1 (stereo unspecified), which activity change is on record?
A: inconclusive: -37.3%

Q: Which activity change does the source give for CC(C)(C)C(=O)NCCN1C(=O)S/C(=C\c2ccc([N+](=O)[O-])cc2)C1=O here?
A: active: -73%

Q: For CC(C)CCN(CC(=O)NCc1ccc(F)cc1)S(=O)(=O)c1ccccc1F, which activity change is on record?
A: active: -79.6%

Q: For CC(C)C(=O)Nc1ccc(NC(=O)c2ccc(COc3ccccc3)cc2)cc1, which activity change is on record?
A: inactive: 2.71%

Q: For COc1ccc(C(=O)NCCNc2ccccc2[N+](=O)[O-])cc1, which activity change is on record?
A: inconclusive: -36.8%

Q: For COc1cc(C2C(C#N)=C(N)OC3=C2C(=O)CC(C)(C)C3)c([N+](=O)[O-])cc1OC (stereo unspecified), which activity change is on record?
A: inactive: 8%

Q: For Cc1cc(N)n(-c2ncnc3scc(-c4ccc(Cl)cc4)c23)n1, which activity change is on record?
A: inactive: 32.2%

Q: Which activity change does the source give for Nc1ccc(C#Cc2ccc3oc4ccccc4c(=O)c3c2)cc1 here?
A: inconclusive: -30.8%

Q: For CCOc1ccc(Nc2nc(N3CCOCC3)nc(N3CCOCC3)n2)cc1, which activity change is on record?
A: inconclusive: -37.7%

Q: With Cc1sc(NC(=O)c2ccc(Cl)s2)c(C(N)=O)c1C as the compound, how does the activity change read?
A: inactive: -16.1%

Q: For COCCNCCCOc1ccc(Br)cc1Cl, which activity change is on record?
A: inconclusive: -43.5%

Q: With COc1ccc(S(=O)(=O)N2CCC[C@H]2C(=O)N2CCC[C@H]2C(=O)NCc2ccncc2)cc1C as the compound, how does the activity change read?
A: active: -57.1%

Q: For COc1cc(NC(=O)c2ccc(S(=O)(=O)N(C)C)cc2)cc(OC)c1OC, which activity change is on record?
A: inconclusive: -40.5%

Q: With C=CC(=O)Nc1ccc(Nc2ccnc(Nc3ccc(N4CCN(C)CC4)cc3)n2)cc1 as the compound, how does the activity change read?
A: active: -83.2%

Q: For CC1=NN(c2ccccc2)C(=O)/C1=C/C=C/c1ccccc1, which activity change is on record?
A: active: -129%

Q: With CC(C)(C)C1(O)CC(C(F)(F)F)=NN1C(=O)CCc1ccccc1 (stereo unspecified) as the compound, how does the activity change read?
A: inactive: 0%

Q: For CCOc1ccc(NC(=S)N(CCN2CCOCC2)Cc2cc3cc4c(cc3[nH]c2=O)OCCO4)cc1, which activity change is on record?
A: active: -53.5%

Q: With CC(C(=O)Nc1ccc([N+](=O)[O-])cc1)N1CCN(C/C=C/c2ccccc2)CC1 (stereo unspecified) as the compound, how does the activity change read?
A: active: -77.2%

Q: Which activity change does the source give for C[C@]12c3[nH]c4cc(-c5ccco5)ccc4c3CCN1C(=O)[C@@H](CC(=O)NCc1ccco1)C[C@@H]2C(=O)N1CCCCC1 here?
A: inconclusive: -46.7%

Q: Which activity change does the source give for Clc1ccc(Cl)c(OCCCCN2CCCCC2)c1 here?
A: inactive: 0%

Q: With CCc1c(C)nc2ncnn2c1N1CCCC(C(=O)Nc2ccc(NC(C)=O)cc2)C1 (stereo unspecified) as the compound, how does the activity change read?
A: inactive: -10.3%

Q: For Cc1nn(C)cc1CN(C)C(=O)CCc1nnc(CCC2CCCCC2)o1, which activity change is on record?
A: inactive: 4.64%

Q: For Cc1ccccc1N(CC(=O)N/N=C/c1ccc(Cl)cc1)C(=O)c1ccccc1, which activity change is on record?
A: inconclusive: -33.4%

Q: Which activity change does the source give for COc1ccc(C(=O)NC2CC(C)(C)Cc3c2cnn3-c2ccccc2)c(OC)c1 (stereo unspecified) here?
A: inconclusive: -31.1%

Q: Which activity change does the source give for Cc1cc2ccccc2c(=O)n1CC(=O)NCC(=O)N1CCCC(C)C1 (stereo unspecified) here?
A: inconclusive: -31%

Q: With Cc1cccc(-c2nc(CN3CCCC(C(=O)NC4CCCCCC4)C3)c(C)o2)c1 (stereo unspecified) as the compound, how does the activity change read?
A: active: -65.7%

Q: For CC1(C)OC(=O)N(c2ccccc2)C12C=Cc1cc(Br)ccc1O2 (stereo unspecified), which activity change is on record?
A: inconclusive: -45.8%

Q: With Cc1cc(N=Nc2ccccc2)cc(C)c1NC(=O)C(F)(F)F as the compound, how does the activity change read?
A: inconclusive: -41.7%

Q: Which activity change does the source give for CCCCN(C)C(=O)Cn1nc(-c2ccc(Cl)cc2)ccc1=O here?
A: inactive: 32.1%

Q: With CC(C)=CCc1c(O)cc(O)c2c(=O)c3c(CC=C(C)C)c(O)ccc3oc12 as the compound, how does the activity change read?
A: inconclusive: -39.3%

Q: For Cc1ccc(NS(=O)(=O)c2ccc(C(=O)NCCCN3CCCC3=O)cc2)cc1C, which activity change is on record?
A: inactive: 1.11%

Q: Which activity change does the source give for CCOC(=O)c1nc(Nc2ccc(C(=O)OC)cc2)c2ccccc2n1 here?
A: inconclusive: -30.7%

Q: Which activity change does the source give for Cc1cccc(NC(=O)c2cccc(Cn3cc(Br)c([N+](=O)[O-])n3)c2)c1C here?
A: inconclusive: -40.9%

Q: For COc1cc(C(=O)N/N=c2/sc3ccccc3n2C)cc(OC)c1OC, which activity change is on record?
A: inactive: 6.92%

Q: Which activity change does the source give for CN1CCN(C(=S)SCC(=O)Nc2nc(-c3ccccc3)c(-c3ccccc3)o2)CC1 here?
A: inconclusive: -39.4%

Q: With Cc1cc(C)n2c(SCC(=O)N(CCC#N)c3ccc4c(c3)OCCO4)nnc2n1 as the compound, how does the activity change read?
A: inactive: -6.33%

Q: For Cc1ccc(/C=N/NC(=O)c2ccc(OC3CCCC3)cc2)o1, which activity change is on record?
A: inconclusive: -34.3%

Q: With Cc1ccc(C(=O)Nc2cccc(NC(=O)c3cccs3)c2)c(C)c1 as the compound, how does the activity change read?
A: inactive: 0.807%

Q: Which activity change does the source give for CC(=O)N1c2ccc(S(=O)(=O)N3CCC(C(=O)Nc4ccccn4)CC3)cc2CC1C (stereo unspecified) here?
A: inactive: 12.3%

Q: Which activity change does the source give for CCOC(=O)c1nnc(-c2ccccc2)nc1Oc1ccccc1Cl here?
A: inactive: -15.4%

Q: Which activity change does the source give for COC(=O)c1ccccc1NC(=O)COC(=O)Cc1ccc(S(=O)(=O)N2CCOCC2)s1 here?
A: inactive: 17.5%

Q: With Cc1cccc(C)c1NC(=O)CN1CCC(Cc2ccccc2)CC1 as the compound, how does the activity change read?
A: inactive: 17.7%

Q: With COc1cc(/C=C2/SC(N)=NC2=O)ccc1Oc1ccc([N+](=O)[O-])cc1[N+](=O)[O-] as the compound, how does the activity change read?
A: inactive: 7.84%

Q: Which activity change does the source give for CN(C)c1ccc(/C=C/C(=O)c2ccc(C(C)(C)C)cc2)cc1[N+](=O)[O-] here?
A: active: -95.8%

Q: For O=C(Nc1ccccc1)C1C2/C=C\CCCCC21 (stereo unspecified), which activity change is on record?
A: active: -50.2%

Q: For COc1ccc(CC(=O)Nc2nc(-c3ccc(OC)c(OC)c3)cs2)cc1OC, which activity change is on record?
A: active: -86.2%

Q: For O=C(c1cc(COc2c(F)cccc2F)on1)N1CCc2ccccc2C1, which activity change is on record?
A: inconclusive: -34.6%

Q: Which activity change does the source give for COc1ccc(Cn2cc(F)c(=O)n(C)c2=O)cc1[N+](=O)[O-] here?
A: inactive: -8.12%

Q: With Cc1cccc(NC(=O)c2ccc([N+](=O)[O-])o2)c1C as the compound, how does the activity change read?
A: active: -88.9%

Q: With Cc1c(O)ccc(/C=N/Nc2ncccc2[N+](=O)[O-])c1O as the compound, how does the activity change read?
A: inactive: 18.5%

Q: With O=C(c1cc(COc2ccc(F)cc2Cl)on1)N1CCCCC1c1cccnc1 (stereo unspecified) as the compound, how does the activity change read?
A: inconclusive: -35.4%

Q: Which activity change does the source give for Cc1cccc(NC(=O)c2ccc(S(=O)(=O)N3CCCCC3)cc2)c1 here?
A: inconclusive: -45.6%

Q: Which activity change does the source give for FC(F)Oc1ccc(NC(=S)NC23CC4CC(CC(C4)C2)C3)cc1 here?
A: inconclusive: -31.1%

Q: For COc1ccc(C)cc1S(=O)(=O)N1CCN(C(=O)c2ncoc2-c2ccc(C)cc2)CC1, which activity change is on record?
A: active: -53.3%

Q: For COC(=O)c1cc(=O)n(Cc2ccc(F)cc2)c(=Nc2ccccc2)s1, which activity change is on record?
A: inconclusive: -30.4%

Q: For N#Cc1cc2c(=O)n3ccccc3nc2n(CCCN2CCOCC2)c1=O, which activity change is on record?
A: inactive: -9.06%

Q: With CCOC(=O)/C(=C\c1ccc(Cl)cc1)c1nc2sc(C)c(C)c2c(=O)[nH]1 as the compound, how does the activity change read?
A: active: -99.8%

Q: Which activity change does the source give for CCOc1cc(CNCc2ccccc2)ccc1OCC(=O)NC1CCCCC1 here?
A: inactive: -5.74%

Q: With CC1CCc2cc(F)ccc2N1C(=O)CCl (stereo unspecified) as the compound, how does the activity change read?
A: active: -97.3%

Q: Which activity change does the source give for CN(Cc1ncc[nH]1)Cc1cn(-c2ccccc2)nc1-c1ccc2c(c1)OCO2 here?
A: inconclusive: -36.8%

Q: Which activity change does the source give for Cc1cccc(C)c1NC(=O)C(C)NCc1cccs1 (stereo unspecified) here?
A: inactive: 6.17%

Q: Which activity change does the source give for COCCCNc1nc(-c2ccc(Cl)cc2)nc2ccccc12 here?
A: inconclusive: -49.1%

Q: With CCCc1nc2sc3c(c2c(=O)n1NC(=O)CCCl)CCCC3 as the compound, how does the activity change read?
A: active: -96.6%

Q: Which activity change does the source give for O=C(Nc1cccc2c1[nH]c1ccccc12)C(F)(F)F here?
A: inconclusive: -35.2%

Q: For Cc1nn(-c2ccccc2)c2sc(C(=O)N3CCc4ccccc4C3)cc12, which activity change is on record?
A: inconclusive: -39.7%

Q: With CCOc1ccc(C(=O)Nc2nnc(NC(=S)Nc3ccccc3)s2)cc1 as the compound, how does the activity change read?
A: inactive: -17.7%

Q: With O=C(COC(=O)c1cc(-c2cccs2)nc2ccccc12)NC1CCS(=O)(=O)C1 (stereo unspecified) as the compound, how does the activity change read?
A: inconclusive: -34%

Q: For C=CCn1c(C)cc(C(=O)CN2C(=O)c3ccccc3S2(=O)=O)c1C, which activity change is on record?
A: inactive: -2.73%

Q: For Cc1c(NC(=O)C(C)OC(=O)c2ncc(Cl)c(Cl)c2Cl)c(=O)n(-c2ccccc2)n1C (stereo unspecified), which activity change is on record?
A: active: -72.4%

Q: For Cc1nc2scc(-c3ccccc3)c2c(=O)n1N=C1C=CC(=O)C=C1, which activity change is on record?
A: active: -71.3%

Q: For O=C(CN1CCC(n2nnc3cc(C(F)(F)F)ccc32)CC1)NCc1cccs1, which activity change is on record?
A: inconclusive: -35.1%

Q: With CC(C)CC(CO)N1CCN(C(=O)c2cccc(Cl)c2)CCC1=O (stereo unspecified) as the compound, how does the activity change read?
A: inactive: -14.3%

Q: For O=C(CSc1nccn1-c1cccc(Cl)c1)NO, which activity change is on record?
A: inactive: 0%

Q: Which activity change does the source give for CCOc1cc(CNCCO)cc(Br)c1OCc1cccs1 here?
A: active: -60.2%

Q: With O=C(NCc1nnc(SCc2ccccc2)n1-c1ccccc1)C12CC3CC(CC(C3)C1)C2 as the compound, how does the activity change read?
A: inconclusive: -35.1%

Q: With O=C(Nc1ccc2c(c1)OCO2)C(c1ccccc1)N1CCCCC1 (stereo unspecified) as the compound, how does the activity change read?
A: inconclusive: -30.1%

Q: For CN1CCN(C(CNC(=O)Nc2ccc(Cl)cc2)c2ccc(F)cc2)CC1 (stereo unspecified), which activity change is on record?
A: inconclusive: -41.9%

Q: With CN(Cc1ccccc1)CC(O)COc1ccc(CNCCCOc2cccnc2)cc1 (stereo unspecified) as the compound, how does the activity change read?
A: inconclusive: -31.1%

Q: For CCCCCCC[C@@H](C/C=C/CCC(=O)O)OC, which activity change is on record?
A: inactive: 45.3%

Q: With C[C@H](CO)N1C[C@H](C)[C@@H](CN(C)S(=O)(=O)c2cn(C)cn2)OCc2cnnn2CCCC1=O as the compound, how does the activity change read?
A: inactive: -8.26%

Q: With COc1ccccc1C(c1nnnn1C(C)(C)C)N1CCN(Cc2ccccc2)CC1 (stereo unspecified) as the compound, how does the activity change read?
A: inconclusive: -36.1%
